Laboratory results reported in PubChem BioAssay AID894 (National Center for Advancing Translational Sciences (NCATS), 2007).
Screen size: about 150,000 compounds; about 6,500 (4.3%) were called active. The inconclusive results got no clear call from the source; some entries with a clear call stand among them for comparison. Calls follow the shape of the dose curve; as a rule, active = well fitted inhibition curve with a large enough effect (not every such curve was filed as active); inconclusive = small, poorly fitted or top-dose-only effect, or another doubt; inactive = no such curve, though single readings can be large or run the other way. Potencies of inconclusive entries are left out as doubtful fits.

biological target: 15-hydroxyprostaglandin dehydrogenase [NAD(+)] (Homo sapiens) (UniProt P15428); assay: qHTS Assay for Inhibitors of HPGD (15-Hydroxyprostaglandin Dehydrogenase); conditions: purified HPGD, NADH fluorescence kinetic, PGE2 substrate; activity change, negative = inhibition: active compounds read low
Sequence of UniProt P15428 (P15428 whole entry, looked up): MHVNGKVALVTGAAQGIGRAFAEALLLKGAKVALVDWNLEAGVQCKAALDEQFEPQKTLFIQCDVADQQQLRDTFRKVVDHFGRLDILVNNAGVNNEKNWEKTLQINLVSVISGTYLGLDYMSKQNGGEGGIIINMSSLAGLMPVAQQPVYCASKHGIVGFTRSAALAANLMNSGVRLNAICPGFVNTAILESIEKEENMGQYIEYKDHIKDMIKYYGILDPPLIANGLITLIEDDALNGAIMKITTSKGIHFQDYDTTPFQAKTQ
Summary of the method: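 20 nM HPGD preincubated 15 min at room temperature with compound in 50 mM Tris-HCl pH 8, 0.01% Tween 20. Started with 1 mM NAD+ and 30 uM prostaglandin E2; NADH fluorescence (360/450 nm) read 5 times over 30-s intervals, last minus first.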
% is scaled to controls: 0 for no effect and ±100 for the full control effect; potency is read from the fitted curve at half-maximal effect; tags tell the direction and shape of the fitted curve.

Row | Structure (SMILES) | Potency | activity change, negative = inhibition
1 | Cc1cc(C)nc(SCc2nc3nc(C)cc(C)n3c2Br)n1 | inconclusive [inhibitor, partial curve] | –
2 | Cc1ccc(NC(=O)C2CCN(C(=O)c3ccccc3C)CC2)cc1 | – | inactive: -4.23%
3 | Cc1ccc(/C=N/N2CCN(c3ccc(Cl)cc3)CC2)o1 | – | inactive: -2.86%
4 | CC(=O)N(C(C)=O)c1ncc2c([nH]c3ccccc32)c1C#N | inconclusive [inhibitor, partial curve] | –
5 | Clc1ccc2c(c1)-c1nnc(Br)n1-c1ccccc1S2 | active: 17.8 µM | –
6 | Cc1ccc(OCC(=O)Nc2cccc3nsnc23)c(C)c1 | inconclusive [inhibitor, partial curve] | –
7 | CSc1ncccc1C(=O)Nc1nc2ccc(Oc3ccccc3)cc2s1 | – | inactive: 174%
8 | Nc1c(S(=O)(=O)c2ccccc2)c2nc3ccccc3nc2n1/N=C/c1ccco1 | inconclusive [inhibitor, partial curve] | –
9 | CNC(=O)/C(C#N)=c1\s/c(=C/C(=O)OC)c(=O)n1-c1ccccc1 | – | inactive: -6.25%
10 | CC1CCCN(c2nc3c(c(=O)n(C)c(=O)n3C)n2Cc2ccccc2)C1 (stereo not drawn) | – | inactive: -6.07%
11 | COc1ccc(-c2nc(-c3ccccc3)[nH]c(=O)c2C#N)cc1 | active: 20 µM | –
12 | S=C(NCc1ccco1)Nc1ccc(Cl)cc1 | active: 17.8 µM | –
13 | CCCN1C(=O)/C(=C/c2ccc(C)o2)SC1=Nc1ccc(OC)cc1 | active: 25.1 µM | –
14 | O=C(NCCN1CCOCC1)NC1(C(F)(F)F)Oc2ccc(Cl)cc2O1 (stereo not drawn) | – | inactive: -5.92%
15 | COc1ccc(/C=N/NC(=O)c2ccccc2Cl)cc1CSc1nc2ccccc2s1 | inconclusive [inhibitor, partial curve] | –
16 | CCC1CCCN1Cn1cnc2c([nH]c3ccccc32)c1=O (stereo not drawn) | inconclusive [inhibitor, partial curve] | –
17 | O=C(c1cc2nc(-c3cccs3)cc(C(F)(F)F)n2n1)N1CCCc2ccccc21 | active: 14.1 µM | –
18 | C/C(=N\NC(=O)c1ccccc1)c1cc2cc([N+](=O)[O-])ccc2oc1=O | active: 25.1 µM | –
19 | CCOC(=O)C1CCN(c2c(NCCCN(CC)c3ccccc3)c(=O)c2=O)CC1 | inconclusive [inhibitor, partial curve] | –
20 | Cc1ccc(C(=O)NNC(=O)c2cccnc2SCc2cccc([N+](=O)[O-])c2)cc1 | – | inactive: -14.6%
21 | Cc1ccc(S(=O)(=O)N2CCN(S(=O)(=O)N3CCOCC3)CC2)c(C)c1 | – | inactive: -9.54%
22 | COc1ccc(-c2nc3ccccc3c(=O)n2CCCN2CCOCC2)cc1 | – | inactive: -8.79%
23 | Cc1nnc(SCC(=O)N2CC(=O)Nc3ccccc32)n1-c1ccccc1 | – | inactive: -11.1%
24 | Cn1c(=O)c2c(nc(CN3CCN(C(=O)c4ccco4)CC3)n2Cc2ccc(Cl)cc2)n(C)c1=O | – | inactive: -6.37%

Row | Structure (SMILES) | Potency | activity change, negative = inhibition
25 | Cc1cc(C)n(-c2nc3c(c(=O)[nH]c(=O)n3C)n2CC(O)COc2ccc(Cl)cc2Cl)n1 (stereo not drawn) | active: 3.55 µM | –
26 | CN1CCN(C(=O)c2cc3c(s2)-c2ccccc2S(=O)(=O)C3)CC1 | inconclusive [inhibitor, full curve] | –
27 | COc1ccc(C2Nc3ccc4ccccc4c3-c3c2c(=O)oc2ccccc32)cc1 (stereo not drawn) | inconclusive [inhibitor, partial curve] | –
28 | Cc1cccc(-c2noc(CCC(=O)NCc3ccco3)n2)c1 | – | inactive: -21.3%
29 | COc1ccc(OC)c(-n2cnc3cc(C(=O)O)ccc32)c1 | active: 15.8 µM | –
30 | CC(C)CN(CC(C)C)C1=N/C(=C\c2ccco2)C(=O)N1c1ccccc1 | inconclusive [inhibitor, partial curve] | –
31 | COc1cccc(NC(=O)Cc2nnc(SCCOc3ccccc3)n2C)c1 | – | inactive: -2.77%
32 | Cc1cc(C)c(S(=O)(=O)N2CCCOC2CNC(=O)C(=O)NCCc2c[nH]c3ccccc23)c(C)c1 (stereo not drawn) | – | inactive: -8.37%
33 | Clc1ccc(OCc2cn3cccnc3n2)c2ncccc12 | inconclusive [inhibitor, partial curve] | –
34 | Cc1ccc(NC(=O)CNc2ccc(OC(C)C)cc2)c(C)c1 | – | inactive: -9.91%
35 | COc1ccc(Nc2nc(C)cc(C)c2C#N)cc1OC | – | inactive: -4.46%
36 | Cc1cc(C)n2ncc(C(=O)NCc3ccc(Cl)cc3)c2n1 | inconclusive [inhibitor, partial curve] | –
37 | Cc1ccc(C(=O)N/N=C\c2cc3c(cc2Br)OCO3)s1 | inconclusive [inhibitor, partial curve] | –
38 | CCOc1ccc(C(=S)NC2CCCCC2)cc1 | active: 14.1 µM | –
39 | COc1ccc(-c2csc(NC(=O)c3cccc(S(=O)(=O)N4CCN(C)CC4)c3)n2)cc1 | inconclusive [inhibitor, partial curve] | –
40 | CCOC(=O)CSC1=NC(=O)CS1 | active: 14.1 µM | –
41 | Cn1c(=O)cc(SCC(=O)NCCC2=CCCCC2)c2ccc(Cl)cc21 | inconclusive [inhibitor, full curve, poor fit] | –
42 | Cc1ccc2nsnc2c1NC(=O)c1ccc(-c2cc(Cl)ccc2Cl)o1 | inconclusive [inhibitor, partial curve] | –
43 | N#CC12CCCCC1CC1CCCCC1(C#N)N2Cc1cccnc1 (stereo not drawn) | – | inactive: -5.94%
44 | CCOC(=O)C(NC(=O)NCc1ccccc1OC)(OCC)C(F)(F)F (stereo not drawn) | – | inactive: -4.77%
45 | COc1ccc(OC)c(N2CC(O)=C(c3nc4ccccc4s3)C2=N)c1 | inconclusive [inhibitor, partial curve] | –
46 | COc1ccc(NC(=O)CC2C(=O)N(C)C(=S)N2CCc2ccccc2)cc1 (stereo not drawn) | – | inactive: -5.53%
47 | Cc1ccc(/C=N/n2cnc3sc(-c4ccccc4)cc3c2=O)o1 | inconclusive [inhibitor, single point] | –
48 | CCNS(=O)(=O)c1ccc2nc(NC(=O)/C=C/c3cc(OC)c(OC)c(OC)c3)sc2c1 | inconclusive [inhibitor, full curve, poor fit] | –
